Sequences and labels used below:
T1: UNK ZnF1-3 (human, UniProt Q9C0B0 31-174)
T1 sequence: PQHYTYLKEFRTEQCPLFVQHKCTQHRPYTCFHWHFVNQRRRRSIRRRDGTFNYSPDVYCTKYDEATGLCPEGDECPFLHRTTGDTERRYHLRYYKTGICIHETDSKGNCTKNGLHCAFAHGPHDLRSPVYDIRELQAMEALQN

B1: chr6:38489255:38489256:+_ENSMUSG00000019689_ENSMUST00000019833|mus_mus|FALSE|FALSE (ssRNA)
RNA: GGGAGUUCUACAGUCCGACGAUCCACUGAACGCUCACCCUUGCCAUGAAAUUCCUGAUGAAGGGCUACAUGUUGCCGGAUGCUACUCAAAAGGCAGAGAUAGGUGGCAGCUUGGAAGUGAAGUUCGUGUUGGGCUCUACACAACAACAGAGGAUUGAGCAUCA
B2: chr14:63761926:63761927:+_ENSMUSG00000021939_ENSMUST00000006235|mus_mus|motif|central (ssRNA)
RNA: GGGAGUUCUACAGUCCGACGAUCCUGCCAAUGUCAAGCAGAGGGAGAAUUGGUUUAUUGGCACAGACAUUCCUUGUUAAACGGCAGGGUUAAGUGGUAACUACAACAAAAAGCAAGUUUUUUUUUCCAGACUAGUUUCAUUGUCAACAGAGGAUUGAGCAUCA
B3: chr6:31368937:31368938:+_ENSMUSG00000025609_ENSMUST00000026699|mus_mus|FALSE|FALSE (ssRNA)
RNA: GGGAGUUCUACAGUCCGACGAUCGGGAGGAUAGUUGCUCUCUGAAGACCAUCUGGAAGACUGAUCAUUUGGUUUAUCCACUAAAAUGUUCUCGGGAAGGUAGGUGGAGGAGAAGGAGCUCCACUUAUGCAGCGCGUAGGGCAGCAACAGAGGAUUGAGCAUCA
B4: 20693388_20693508_2158_3pUTR_ENSMUSG00000043004_ENSMUST00000160013|mouse|control|control (ssRNA)
RNA: GGGAGUUCUACAGUCCGACGAUCCACCAACUUUUAAACCAUGAGGAAGAGAAUGGUAAGAGGAGAAAAGAAAUUUUACUUGGAUUUAGUGGUCUUUUAGGAUCUGAAAACAAAAAGAAUCGUAAGAGGCUCUCUUUGACUGGGCAACAGAGGAUUGAGCAUCA
B5: chr7:125262511:125262512:-_ENSMUSG00000030654_ENSMUST00000032888|mus_mus|FALSE|FALSE (ssRNA)
RNA: GGGAGUUCUACAGUCCGACGAUCAAAGAAGAAAUGAUUAAAACUGCCAAAGUAGUUAACUCGUAGAACAUGUAUUAGUCACACACACACAAAUUCCAGGUAGGAAGGCAGGCUUAUUUACAAGAAAACAUGUAAAAUCAAAGUCAACAGAGGAUUGAGCAUCA
B6: 84846767_84848187_400_CDS_ENSMUSG00000024644_ENSMUST00000025546|mouse|control|control (ssRNA)
RNA: GGGAGUUCUACAGUCCGACGAUCAUCGUCCGUGGAGCCUCUCCCAUACAGCUUGCCUUCCCGCUCCACCAAGGUGAAGGGCUCGCUGUCCCACCCGUCCUCCAGGGCCGCAGGCUGCACGUCCAGGUGCCCGUAAAUGCACACCAACAGAGGAUUGAGCAUCA
B7: 88149557_88149677_325_CDS_ENSMUSG00000015053_ENSMUST00000015197|mouse|control|control (ssRNA)
RNA: GGGAGUUCUACAGUCCGACGAUCAGGCAGCAGCUGUGCUGGCUCCAUGUAGUUAUGCGCCAGGCCCGGAUGGUGCGAGUCGGGGUGCUGCGCAUUCAAUACGGCGGGGUGCGCCAUCCAGCGAGGCUGCUCAGGCGCCACCUCCAACAGAGGAUUGAGCAUCA
B8: chr16:94651144:94651145:+_ENSMUSG00000040785_ENSMUST00000117648|mus_hu|FALSE|FALSE (ssRNA)
RNA: GGGAGUUCUACAGUCCGACGAUCAUUUUCUUGAAUCAAGUGGCGAAUAACAUAGUCCACUGCUUCAUUUAGAAAAUUUCUGCUAGAAAAACAGGUUGUAUAGUCUUCUGUGCUCAAAACUUUCCAAGAAAGCAAUUCUUUGAGCAACAGAGGAUUGAGCAUCA
B9: chr5:136386016:136386017:-_ENSMUSG00000051391_ENSMUST00000055808|mus_mus|FALSE|FALSE (ssRNA)
RNA: GGGAGUUCUACAGUCCGACGAUCGGGGGUAUUUAACGGUUUCUGUUUUUGUGAUGGGCUGACCUUAAGGGUAAAGAAGAACUAAAAAAAAAAGUAUCCCCCGCAGCCCCCUCCCAAACACCCAUCAACCAAAACGGAACAGGGCAACAGAGGAUUGAGCAUCA
B10: chr14:35505469:35505470:+_ENSMUSG00000041408_ENSMUST00000048263|mus_hu|FALSE|FALSE (ssRNA)
RNA: GGGAGUUCUACAGUCCGACGAUCCUGUAUGGUAACAUUACAAACUGACAAGCAAGAUGGAUGUAAAACAGUGUAAUCUCUAGUCCGUCCAACUGUCCCUCUAAAACUGGUCCCACAACUUACACCCCCUUUCUUUGCCUGAUUCAACAGAGGAUUGAGCAUCA
B11: chr2:232320318:232320319:-_ENSG00000115053_ENST00000322723|hu_hu|hu_hu_hu_mus_True|48_68 (ssRNA)
RNA: GGGAGUUCUACAGUCCGACGAUCACUAUUAAAGUCUACAAAACCAAACCCUUUGGAAGAACCAGUUUCCCGGUCAGUGACUAUUCUUGCCCGAACGGAGCCCUCAAAUGAUUCUUUUAAGGUCUCUUCAGUGGUAUCCUCAGACAACAGAGGAUUGAGCAUCA
B12: chr8:11702082:11702083:-_ENSG00000164733_ENST00000533455|hu_mus|motif|central (ssRNA)
RNA: GGGAGUUCUACAGUCCGACGAUCCUAUAAAACCAGUACAGCUCUUCAUACUUGGUUGAGGUACACAAAGCAUAAAAAUCCGGUUGAAAAAGCAUCGGCUGAGGACAGGACCAAGGAGAGCUGGCCACAUUACCAAUGUCGAUGCAACAGAGGAUUGAGCAUCA
B13: chr9:95013113:95013114:-_ENSG00000196305_ENST00000443024|hu_hu|hu_hu_hu_mus_False|8_68 (ssRNA)
RNA: GGGAGUUCUACAGUCCGACGAUCCUCAGUCAGAAAGGGCGUGUAAGGGGCCAUCAGUCUGCACAGAGAAAGCAGAACACUGAACAGUGUCUCCAGAGCCAUGACACAGUCUUCCACCCCACUCUCACCCUUUAAUCUCCUCCUCAACAGAGGAUUGAGCAUCA
B14: chr2:134423880:134423881:-_ENSMUSG00000034723_ENSMUST00000038228|mus_hu|FALSE|FALSE (ssRNA)
RNA: GGGAGUUCUACAGUCCGACGAUCCUAGCUGUGAAAGAUUUUUCAUGCACUGUGGUGCCUGAUGUUUCCUGCAAUUUGACAAAAAUAAAUACUUUACACAAGAAAAGGAUGCAAGGCUUCUACGUUACACUUUGGGGAUGCUCACAACAGAGGAUUGAGCAUCA

The other results are listed elsewhere or left out.

This assay addresses T1, UNK ZnF1-3. The assay is described as follows: nsRBNS (natural sequence RNA bind-n-seq); RBNS binding buffer (assumed for nsRBNS): 25 mM Tris pH 7.5, 150 mM KCl, 3 mM MgCl2, 0.01% Triton X-100, 500 ug/ml BSA, 20 U/ml SUPERase-In, 4 C; UNK is unkempt and MSI1 is Musashi-1; names of the RNAs are library labels; protein concentration not given here; high values mean tight binding.
On to B1, for which the binding signal was determined as 1.12 enrichment R.
Next, B2: 1.41 enrichment R; B3: 2.07 enrichment R.
Next, B4: 1.77 enrichment R; B5: 1.09 enrichment R; B6: 0.765 enrichment R.
Then B7, with 0.544 enrichment R.
Consider B8, for which the binding signal is 0.34 enrichment R.
B9 showed a binding signal of 1.36 enrichment R.
Then B10, with 1.08 enrichment R; and B11, with 0.476 enrichment R; and B12, with 0.785 enrichment R.
Next, B13: 1.26 enrichment R; B14: 1.26 enrichment R.

These data come from paper PMC12136788.
